Out of some 150,000 compounds screened, about 540 (0.36%) showed an effect of 50% or more. The list shows a part of the results.
tested on: Plasmodium falciparum; experiment: Primary screen in NF54 nanoGlo assay, in single point, at 2uM, 72h; a lower Z score goes with more inhibition; format: functional, Erythrocyte; settings: timepoint 72 hour

| SMILES | % Inhibition | Z score |
| --- | --- | --- |
| Cc1cccc(N2CCC(n3cnc4cn(C)nc4c3=O)CC2)c1 | -3% | 0.61 |
| CN(C)c1n[nH]c(NC(=O)c2ccc(OC(F)F)cc2F)n1 | -8% | 1.26 |
| CC(C)(CC(=O)NC1(CO)CCOCC1)CC(=O)c1ccccc1 | -1% | 0.16 |
| CS(=O)(=O)N(CCN1CCCCC1)C1CN(C(=O)c2ccc(F)c(F)c2)C1 | -15% | 1.97 |
| Cc1cc(CN2CCN(C(=O)c3c(C)c(C)n[nH]c3=O)CC2)on1 | -2% | 0.25 |
| CCCc1nc(-c2cc3cc(C)ccc3nc2NCc2ccc(OC)cc2)no1 | -3% | 0.5 |
| COc1ccc(N2C(=O)CN(Cc3ccccc3F)[C@H]3CS(=O)(=O)C[C@H]32)cc1Cl | -1% | 0.11 |
| COc1ccc(C(=O)NCC#CCN(C(C)C)C(C)C)cc1OC | -4% | 0.71 |
| CN(C[C@H]1CCCCN1C)C(=O)c1cn[nH]c1 | -10% | 1.32 |
| COCCN(Cc1cccc(O)c1)CC1CCN(Cc2ccccc2F)CC1 | -1% | 0.12 |
| COc1ccc(-c2c(NC(=O)c3ccc(F)cc3)n(-c3cccc(C)c3)nc(C)c2=O)cc1 | 32% | -3.59 |
| Cc1nc2ccccc2n1CCNc1ncccc1C#N | -6% | 0.79 |
| COc1cccc(CN(C)C(=O)[C@@H]2CCCN2C(=O)c2ccccn2)n1 | -2% | 0.19 |
| O=C(c1c[nH]c(=O)c(Cl)c1)N1CCc2ccccc21 | -10% | 1.56 |
| Fc1cccc(CCn2ccc(-c3cccc(-c4cnccn4)c3)n2)c1 | 0% | 0.06 |
| CCOC1CC(N(C)C(=O)c2cc(C)n(-c3cc(C)on3)c2C)C1(C)C (stereo not drawn) | 8% | -1.33 |
| CC[C@H](C)Cc1nc(-c2cc(C#N)c[nH]2)n(CC(C)(C)O)n1 | -11% | 1.01 |
| CCc1nc2c(c(OC3CCN(C(=O)c4sccc4C)CC3)n1)CCOCC2 | -4% | 0.44 |
| CC12C(N)(c3ccccc3)NC(=O)C1(C#N)C2(C#N)C#N (stereo not drawn) | -9% | 1.47 |
| Cc1nc(N2CCC(C)CC2)nc2oc(-c3ccccc3)nc12 | -6% | 0.79 |
| COc1ccc(N2C[C@@H](c3nnc(NC(=O)COc4ccccc4C)o3)CC2=O)cc1 | -4% | 0.56 |
| O=C1CC[C@@H](C(=O)N2CC(Oc3nc4ccccc4s3)C2)N1 | -15% | 1.68 |
| Cc1ccc(C)n1-c1c(C(=O)N2CCC(Cc3ccccc3)CC2)sc2ncccc12 | -21% | 1.93 |
| O=C(Nc1ccc(F)cc1)N1CCc2ccccc2[C@H]1c1ccccc1Cl | 3% | -0.45 |
| CC(COC1CCOC1)NC(=O)NC1CCN(C(C)C)C1=O (stereo not drawn) | 16% | -1.86 |
| CC(C)c1nccn1Cc1ccncc1F | 0% | -0.05 |
| Cc1cc(C)nc(N[C@@H](Cc2ccccc2)C(=O)N2CCn3c(nnc3C(F)(F)F)C2)n1 | 10% | -1.22 |

| SMILES | % Inhibition | Z score |
| --- | --- | --- |
| Cc1ccc(CN(Cc2ccc(F)cc2)C(=O)CN(C(=O)c2ccccc2Cl)C2CCCCC2)s1 | 11% | -1.54 |
| COC1(C)CCN(C(=O)[C@@H]2C[C@H](C)CC(=O)N2)CC1 | 3% | -0.42 |
| COc1cccc(NC(=O)[C@@H]2Cc3[nH]cnc3C3(CCCC3)N2)c1 | -10% | 1.58 |
| Cn1c(=O)ccc2ccc(NC(=O)N3CCC[C@H](c4ccc(F)c(F)c4)C3)cc21 | -3% | 0.51 |
| CO[C@@H](C)Cn1ccc(=O)c2cccc(OC(F)(F)F)c21 | -8% | 0.74 |
| COc1cc(C(=O)NCCN2CCOCC2)cc2occc12 | 31% | -4.47 |
| CCC(C)N(Cc1ccccc1)CC(O)COC(C)(C)C (stereo not drawn) | -3% | 0.43 |
| Cc1cc(C(=O)NC2(C(F)F)CC2)oc1C | -6% | 1.2 |
| CC(C)c1cc(=O)n(Cc2nccn2C(F)F)cn1 | -5% | 0.53 |
| Cc1nc(CN[C@@H](C)c2ccc(N3CCN(C)CC3)cc2)cs1 | -13% | 1.28 |
| Nc1ccc(OCC(F)F)c(Cl)c1 | 0% | 0.06 |
| COc1cc(OC)cc(C(=O)NC(C(C)C)C(C)C)c1 | 0% | 0.03 |
| O=C(NCc1ccccn1)C(F)(F)F | 7% | -1.11 |
| O=C(NCC1CCN(c2cc(O)ncn2)CC1)c1ccccc1 | -9% | 1.66 |
| Cc1ccccc1OCCN1C(=O)N[C@@]2(CCCCc3ccccc32)C1=O | -3% | 0.66 |
| CCC(=O)Nc1nnc([C@H]2CC(=O)N(c3ccc(OC(F)(F)F)cc3)C2)o1 | -7% | 1.07 |
| C[C@H](NC(=O)c1coc(COc2ccc3ncccc3c2)n1)c1cnn(C)c1 | 5% | -0.66 |
| COc1cc(CN[C@H]2C[C@H](O)C23CCOCC3)on1 | -14% | 1.44 |
| N#Cc1c(-c2ccoc2)cc(-c2cccc(C(=O)O)c2)nc1N | 1% | -0.18 |
| Cc1nc2c(c(=O)n1C)CN([C@@H](C)C(=O)Nc1ccc(F)cc1)C2 | 6% | -1.08 |
| CCn1c(CN2CCN(c3ncccn3)CC2)nc2cc(S(=O)(=O)N3CCCCC3)ccc21 | -4% | 0.62 |
| Cn1cnc(CCNC(=O)C2(C)COC2)c1 | -2% | 0.45 |
| O=c1ccc(C(F)(F)F)nn1Cc1cc2n(n1)CCC2 | -1% | 0.14 |
| CC(C)c1ccc(S(=O)(=O)Nc2ccc(CCc3nc4ccccc4n3-c3ccccc3)cc2)cc1 | 6% | -0.76 |
| O=C(Nc1ccnn1-c1ccc(Cl)cc1)c1ccoc1Cl | -4% | 0.42 |
| CCc1nc(C)c(C(C)N(C)S(=O)(=O)N2CCCC(C)C2)s1 (stereo not drawn) | 1% | -0.08 |
| COc1ccc(-c2cc(C[C@@H]3CC[C@H](O)[C@@H](CNCc4ccccc4)O3)no2)cc1 | -9% | 1.19 |
